Measurements: article PMC6212790
The list shows a part of the results. At the low end of the ranking, values are background and their order means little.

biological target: T1, GST-Rok (full length) (UniProt O34857); test: protein binding microarray; settings: Rok is a gene silencer of Bacillus subtilis; high values mean tight binding; most listed sequences are background and not binding sites; double strand, one strand shown;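 also: rank score from −0.5 (least bound) to 0.5 (best bound)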
T1 sequence: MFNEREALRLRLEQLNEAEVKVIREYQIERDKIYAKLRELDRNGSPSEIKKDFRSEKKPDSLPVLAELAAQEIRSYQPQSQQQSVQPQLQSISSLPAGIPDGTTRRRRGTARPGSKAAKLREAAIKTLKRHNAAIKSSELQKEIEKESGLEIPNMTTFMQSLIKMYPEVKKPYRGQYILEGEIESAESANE

Question: With CGATATAG as the sequence, how does the binding signal read?
Answer: 0.191 E-score

Question: Which binding signal does the source give for AGAAGGTC here?
Answer: -0.0225 E-score

Question: Which binding signal does the source give for AGTTAATG here?
Answer: 0.176 E-score

Question: ATATGCAA was tested. Which binding signal did it give?
Answer: 0.333 E-score

Question: ATGGTGCA was tested. Which binding signal did it give?
Answer: -0.0265 E-score

Question: With ACTCGTGG as the sequence, how does the binding signal read?
Answer: -0.173 E-score

Question: Which binding signal does the source give for GATCCCCA here?
Answer: -0.34 E-score

Question: Which binding signal does the source give for CTCTCAAA here?
Answer: -0.134 E-score

Question: How did the binding signal turn out when ATCGCATA was run?
Answer: 0.205 E-score

Question: For AAGAGAAT, which binding signal is on record?
Answer: 0.113 E-score

Question: How did the binding signal turn out when CGACTTTC was run?
Answer: 0.0668 E-score

Question: GAGTAAAC was tested. Which binding signal did it give?
Answer: 0.000344 E-score

Question: Which binding signal does the source give for AACCAGCC here?
Answer: -0.124 E-score

Question: Which binding signal does the source give for TGCATAAA here?
Answer: 0.169 E-score

Question: With AGTGCCTC as the sequence, how does the binding signal read?
Answer: -0.273 E-score

Question: How did the binding signal turn out when CAATTTAA was run?
Answer: 0.152 E-score

Question: AGCGGGGA was tested. Which binding signal did it give?
Answer: -0.076 E-score

Question: With GTTACGCA as the sequence, how does the binding signal read?
Answer: 0.029 E-score

Question: Which binding signal does the source give for CCCCCAAG here?
Answer: -0.373 E-score

Question: With CCACATCA as the sequence, how does the binding signal read?
Answer: 0.0395 E-score

Question: How did the binding signal turn out when CGGCTGCC was run?
Answer: -0.291 E-score

Question: Which binding signal does the source give for ACTTCTCC here?
Answer: 0.00788 E-score

Question: With AACGGGGC as the sequence, how does the binding signal read?
Answer: -0.148 E-score

Question: For AGCATCAT, which binding signal is on record?
Answer: 0.0173 E-score

Question: Which binding signal does the source give for CCGCGGTA here?
Answer: -0.0227 E-score

Question: With CGTGCTCC as the sequence, how does the binding signal read?
Answer: -0.286 E-score

Question: For AGTCCGGA, which binding signal is on record?
Answer: -0.115 E-score

Question: CGACCAGA was tested. Which binding signal did it give?
Answer: 0.0144 E-score

Question: With AAATCAGG as the sequence, how does the binding signal read?
Answer: 0.149 E-score

Question: Which binding signal does the source give for GACGATAA here?
Answer: 0.0346 E-score

Question: With AACAGCAT as the sequence, how does the binding signal read?
Answer: 0.0333 E-score

Question: For CGCACCAA, which binding signal is on record?
Answer: 0.0606 E-score

Question: GGATTTGA was tested. Which binding signal did it give?
Answer: -0.0757 E-score

Question: With AGCGCGCT as the sequence, how does the binding signal read?
Answer: 0.0465 E-score

Question: How did the binding signal turn out when CCCACCAG was run?
Answer: -0.326 E-score

Question: With ATGTCTCA as the sequence, how does the binding signal read?
Answer: -0.0485 E-score

Question: ACAGGACG was tested. Which binding signal did it give?
Answer: -0.0527 E-score

Question: For GCTGCGCA, which binding signal is on record?
Answer: -0.146 E-score

Question: For GTATACAA, which binding signal is on record?
Answer: 0.308 E-score

Question: Which binding signal does the source give for ACCCTAAG here?
Answer: -0.185 E-score

Question: For CCCATGTA, which binding signal is on record?
Answer: 0.12 E-score

Question: With ACTCGGGG as the sequence, how does the binding signal read?
Answer: -0.227 E-score

Question: Which binding signal does the source give for AATCTCGT here?
Answer: 0.133 E-score

Question: With AAGAGAGG as the sequence, how does the binding signal read?
Answer: -0.35 E-score

Question: With GTGCCGAA as the sequence, how does the binding signal read?
Answer: -0.154 E-score

Question: How did the binding signal turn out when AGCCGTCG was run?
Answer: -0.429 E-score

Question: Which binding signal does the source give for CGCTTCCG here?
Answer: -0.196 E-score

Question: How did the binding signal turn out when CTTTGCCA was run?
Answer: -0.232 E-score

Question: How did the binding signal turn out when AGGCGGAG was run?
Answer: -0.286 E-score

Question: CTGACTAC was tested. Which binding signal did it give?
Answer: 0.1 E-score

Question: For TGATGTAA, which binding signal is on record?
Answer: 0.134 E-score

Question: For TAGGACTA, which binding signal is on record?
Answer: 0.0703 E-score

Question: AGGAACGG was tested. Which binding signal did it give?
Answer: -0.278 E-score

Question: With CATTTCCA as the sequence, how does the binding signal read?
Answer: 0.0507 E-score

Question: Which binding signal does the source give for CCTCTCAC here?
Answer: -0.164 E-score

Question: GAAGGAGC was tested. Which binding signal did it give?
Answer: -0.24 E-score

Question: Which binding signal does the source give for CGATAACC here?
Answer: -0.0695 E-score

Question: How did the binding signal turn out when CGTTTGCA was run?
Answer: -0.174 E-score

Question: ATCCAACG was tested. Which binding signal did it give?
Answer: -0.0422 E-score

Question: CGCTAACG was tested. Which binding signal did it give?
Answer: 0.0283 E-score

Question: How did the binding signal turn out when TCACAAGA was run?
Answer: -0.166 E-score

Question: Which binding signal does the source give for AAGATCGA here?
Answer: 0.119 E-score

Question: Which binding signal does the source give for CAAGAGGC here?
Answer: -0.306 E-score

Question: How did the binding signal turn out when GTACTGCA was run?
Answer: 0.198 E-score

Question: ATGTGGCG was tested. Which binding signal did it give?
Answer: -0.0322 E-score

Question: Which binding signal does the source give for TACATCCA here?
Answer: 0.248 E-score

Question: Which binding signal does the source give for GAACGAAA here?
Answer: -0.0952 E-score

Question: AGGGTGGA was tested. Which binding signal did it give?
Answer: -0.354 E-score

Question: How did the binding signal turn out when CGAATGAG was run?
Answer: 0.0153 E-score

Question: Which binding signal does the source give for ACTCACAC here?
Answer: 0.0343 E-score

Question: ACTGTACT was tested. Which binding signal did it give?
Answer: 0.209 E-score

Question: Which binding signal does the source give for GCTCCTCA here?
Answer: -0.235 E-score

Question: With CCATGTTA as the sequence, how does the binding signal read?
Answer: 0.123 E-score

Question: GAGTTCTA was tested. Which binding signal did it give?
Answer: 0.169 E-score

Question: With GCTACGCA as the sequence, how does the binding signal read?
Answer: -0.225 E-score

Question: AGTCTGTA was tested. Which binding signal did it give?
Answer: 0.118 E-score

Question: Which binding signal does the source give for GAGGGCCC here?
Answer: -0.441 E-score

Question: With CGCTATGC as the sequence, how does the binding signal read?
Answer: -0.151 E-score

Question: GCCAGTCA was tested. Which binding signal did it give?
Answer: -0.0452 E-score

Question: Which binding signal does the source give for CACCTGTC here?
Answer: -0.192 E-score

Question: GATGAACC was tested. Which binding signal did it give?
Answer: -0.136 E-score

Question: Which binding signal does the source give for ACATCCCA here?
Answer: -0.0483 E-score

Question: How did the binding signal turn out when CCATTACA was run?
Answer: 0.0924 E-score

Question: Which binding signal does the source give for ACGATACA here?
Answer: 0.175 E-score

Question: For CTGAGAAC, which binding signal is on record?
Answer: -0.0521 E-score

Question: ATGCTAAT was tested. Which binding signal did it give?
Answer: 0.184 E-score

Question: ATGTGTTG was tested. Which binding signal did it give?
Answer: 0.111 E-score

Question: With CATCGTTA as the sequence, how does the binding signal read?
Answer: 0.161 E-score

Question: For AGGCTCTG, which binding signal is on record?
Answer: -0.157 E-score

Question: How did the binding signal turn out when CGCCGTAA was run?
Answer: -0.148 E-score

Question: How did the binding signal turn out when CGCAGCAG was run?
Answer: -0.129 E-score

Question: With ACTCAGTG as the sequence, how does the binding signal read?
Answer: -0.0539 E-score

Question: Which binding signal does the source give for ACACACAA here?
Answer: -0.072 E-score

Question: Which binding signal does the source give for GATCCCAC here?
Answer: -0.142 E-score
